PubChem BioAssay AID624170 (National Center for Advancing Translational Sciences (NCATS), 2012)
The whole screen tested about 410,000 compounds, of which about 850 (0.21%) were called active. Inconclusive means that the source gave no clear call. Such entries were picked first, then a sample of the others. Calls follow the shape of the dose curve; as a rule, active = well fitted inhibition curve with a large enough effect; inconclusive = small, poorly fitted or top-dose-only effect, or another doubt; inactive = no such curve, though single readings can be large or run the other way. Potencies of inconclusive entries are left out as doubtful fits.
Potency is read from the fitted curve at half-maximal effect; tags tell the direction and shape of the fitted curve.

Each compound was assayed against Glutaminase kidney isoform, mitochondrial (Homo sapiens) (UniProt O94925) (assay: qHTS for Inhibitors of Glutaminase (GLS)). Conditions: GLS enzymatic activity, qHTS titration; series mostly up to 45.5 µM.
Sequence of UniProt O94925 (O94925 whole entry, looked up, canonical isoform): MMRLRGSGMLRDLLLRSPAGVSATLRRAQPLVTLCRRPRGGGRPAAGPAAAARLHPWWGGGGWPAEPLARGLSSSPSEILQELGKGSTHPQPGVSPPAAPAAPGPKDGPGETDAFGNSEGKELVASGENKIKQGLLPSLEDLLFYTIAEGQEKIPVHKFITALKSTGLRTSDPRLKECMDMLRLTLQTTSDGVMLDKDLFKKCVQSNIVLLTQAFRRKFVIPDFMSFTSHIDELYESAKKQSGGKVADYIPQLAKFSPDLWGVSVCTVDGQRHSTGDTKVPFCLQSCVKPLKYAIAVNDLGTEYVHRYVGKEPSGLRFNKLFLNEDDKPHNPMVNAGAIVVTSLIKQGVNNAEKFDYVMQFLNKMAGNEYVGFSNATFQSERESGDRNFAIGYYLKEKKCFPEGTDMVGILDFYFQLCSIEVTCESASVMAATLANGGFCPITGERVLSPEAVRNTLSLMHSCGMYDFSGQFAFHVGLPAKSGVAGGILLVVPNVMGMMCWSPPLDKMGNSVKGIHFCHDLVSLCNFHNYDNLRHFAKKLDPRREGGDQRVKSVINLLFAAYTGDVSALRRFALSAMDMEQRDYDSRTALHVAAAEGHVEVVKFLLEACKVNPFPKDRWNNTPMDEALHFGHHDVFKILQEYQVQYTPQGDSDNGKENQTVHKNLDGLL
Outline: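 Enzyme dispensed in phosphate buffer (45 mM, pH 8.2, 0.02% Tween-20), compounds pinned in, then 1 mM L-glutamine solution and the glutamate oxidase–HRP–Amplex Red mix added; fluorescence read immediately and again after 30 min at room temperature.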
In the case of `O=C(c1cccc(-n2cccc2)c1)N1CCN(S(=O)(=O)c2ccccc2)CC1`, the Potency is reported as inconclusive [inhibitor, single point].
With `CCC(=O)N1c2ccccc2NC2=C(C(=O)CC(c3ccco3)C2)C1c1ccco1` (stereo not given) the Potency was “inactive”.
For `Cc1cccc(C(=O)N[C@H](C(=O)OCC(=O)NC(=O)c2cccn2C)C(C)C)c1`, the Potency was inconclusive [inhibitor, single point].
For `O=C(COc1ccc2c(c1)CCC2)N1CCc2ccccc21`, the Potency was inconclusive [inhibitor, single point].
In the case of `Oc1c(CN2CCOCC2)cc(CN2CCOCC2)c(O)c1O`, the Potency is reported as inconclusive [inhibitor, single point].
`O=C(NC(Cc1ccccc1)C(=O)O)/C(=C/c1ccc(Cl)cc1)NC(=O)c1ccco1` (stereo not given) was tested, and the Potency was inconclusive [inhibitor, single point].
For `CCCc1ccc(OCC(O)CN2CCN(c3ccccn3)CC2)cc1` (stereo not given), the Potency was “inactive”.
`CN(C)S(=O)(=O)c1cccc(-c2csc(N/N=C/c3ccco3)n2)c1` was tested, and the Potency was inconclusive [inhibitor, single point].
In the case of `CC1CCN(C(=O)c2ccccc2NC(=O)c2cccs2)CC1`, the Potency is reported as “inactive”.
With `Cc1nc2nc(-c3ccc(Cl)cc3)cn2nc1C` the Potency was “inactive”.
For `CC(NC(=O)c1cccc(Br)c1)c1ccccc1` (stereo not given), the Potency was “inactive”.
`Clc1ccc(CNc2ccc(N3CCN(Cc4ccccc4)CC3)cc2)cc1` was tested, and the Potency was inconclusive [inhibitor, partial curve].
With `CC(C)(C)C(C(=O)Oc1ccccc1)c1ccccc1` (stereo not given) the Potency was inconclusive [inhibitor, single point].
`O=C(O)c1[nH]c(-c2ccccc2)c2c1C(=O)N(C1CC1)C2=O` was tested, and the Potency was inconclusive [inhibitor, single point].
For `N#Cc1ccc(Oc2ccc(S(=O)(=O)N3CCCC3)cn2)cc1`, the Potency was “inactive”.
`O=C(OCc1ccccc1)c1ccc(NCc2cc(O)ccc2O)cc1` was tested, and the Potency was inconclusive [inhibitor, single point].
In the case of `COc1ccc(/C=N/Nc2ccccc2C(=O)O)cc1Cn1cc([N+](=O)[O-])cn1`, the Potency is reported as inconclusive [inhibitor, single point].
For `CCOc1ccccc1-c1c2cc(O)c(=O)cc-2oc2cc(O)c(O)cc12`, the Potency was inconclusive [inhibitor, full curve].
For `Cc1ccc(SCc2ccc(C(=O)NCc3ccncc3)cc2)cc1`, the Potency was “inactive”.
For `Cc1cc(Cl)ccc1NNC(=O)CCc1ccccc1`, the Potency was inconclusive [inhibitor, partial curve].
With `COc1ccc(NC(=S)NNC(=S)Nc2cccc(C(F)(F)F)c2)cc1` the Potency was inconclusive [inhibitor, single point].
In the case of `COc1ccc(CC(=O)Nc2cccc(S(=O)(=O)N3CCCCCC3)c2)cc1OC`, the Potency is reported as “inactive”.
`O=C(Nc1ccccc1N1CCCC1)c1ccc(F)c(S(=O)(=O)N2CCOCC2)c1` was tested, and the Potency was inconclusive [inhibitor, partial curve, poor fit].
`O=C(O)[C@@H]1Cc2c([nH]c3ccccc23)C2CCC(=O)N21` (stereo not given in full) was tested, and the Potency was inconclusive [inhibitor, single point].
With `Cc1c(NC(=O)Nc2cccs2)cccc1[N+](=O)[O-]` the Potency was “inactive”.
With `O=C(CSC1=NCCS1)NCc1ccco1` the Potency was inconclusive [inhibitor, single point].
In the case of `COc1cc2cc(CNc3ccc(C)cc3)c(=O)n(CC(=O)Nc3ccc(F)cc3F)c2cc1OC`, the Potency is reported as inconclusive [inhibitor, single point].
In the case of `COc1ccc2c(c1OC)C(=O)OC2Nn1cncn1` (stereo not given), the Potency is reported as inconclusive [inhibitor, single point].
In the case of `O=c1cc(-c2ccc(O)c(-c3c(O)cc(O)c4c(=O)cc(-c5ccc(O)cc5)oc34)c2)oc2cc(O)cc(O)c12`, the Potency is reported as inconclusive [inhibitor, single point].
With `O=C(Cn1nc(-c2cccs2)ccc1=O)Nc1ccc(Br)cc1` the Potency was inconclusive [inhibitor, single point].
With `O=C1NC(Nc2nc3ccccc3s2)(C(F)(F)F)C(=O)N1C1CCCCC1` (stereo not given) the Potency was inconclusive [inhibitor, partial curve, poor fit].
`Oc1ccc(N=Nc2cccc(Cl)c2)cc1C=Nc1ccc(N2CCOCC2)cc1` was tested, and the Potency was inconclusive [inhibitor, partial curve].
In the case of `COc1cccc(NC(=S)N(CCCN2CCOCC2)Cc2cn(C)c3ccccc23)c1`, the Potency is reported as inconclusive [inhibitor, single point].
`O=c1sc2ccccc2c(=O)n1Cc1ccccc1F` was tested, and the Potency was active: 12.6 µM.
For `Fc1cccc(-n2ncc3c2ncn2nc(COc4ccc(Cl)cc4)nc32)c1`, the Potency was “inactive”.
`O=c1/c(=C\c2cc([N+](=O)[O-])cc([N+](=O)[O-])c2O)sc2nc3ccccc3n12` was tested, and the Potency was inconclusive [inhibitor, single point].
In the case of `Cc1ccc(NC(=O)c2ccc3c(c2)CCN3S(C)(=O)=O)cc1C`, the Potency is reported as inconclusive [inhibitor, single point].
`CC1CCc2c(C(=O)NCCN3CCOCC3)csc2C1` (stereo not given) was tested, and the Potency was inconclusive [inhibitor, single point].
In the case of `CC(=O)N1CCc2c(sc3c2c(=O)n(-c2ccccc2Cl)c(=O)n3C)C1`, the Potency is reported as inconclusive [inhibitor, partial curve, poor fit].
In the case of `CSc1ccccc1C(=O)NC1CCSc2ccccc21` (stereo not given), the Potency is reported as “inactive”.
For `CC(NC(=O)c1cnc2n(c1=O)CCS2)c1ccccc1` (stereo not given), the Potency was inconclusive [inhibitor, single point].
In the case of `Cc1cccc(/C=c2\s/c(=C\C(=O)C(C)(C)C)[nH]c2=O)c1`, the Potency is reported as “inactive”.
`CCOc1ccc(CCNC(=O)C2CCCN(c3nnc(C)c4c(C)n(-c5ccccc5)nc34)C2)cc1` (stereo not given) was tested, and the Potency was “inactive”.
For `Cc1cccc(C)c1NC(=O)c1ccc(-c2cc(F)ccc2F)o1`, the Potency was inconclusive [inhibitor, single point].
For `CCCCOC(=O)C(C)c1c(C)[nH]c(=S)[nH]c1=O` (stereo not given), the Potency was “inactive”.
